In PubChem BioAssay AID2675 (National Center for Advancing Translational Sciences (NCATS), 2010):
The campaign covered roughly 280,000 compounds. About 100 (0.036%) were called active. The shares of active, inactive and inconclusive entries below differ from those in the screen. Calls come from the whole dose curve; as a rule, active = well fitted inhibition curve with a large enough effect in the signal ratio, with a control signal flat (not every such curve was filed as active); inconclusive = small, poorly fitted or top-dose-only effect, or effect the other way, or a change in a side signal; inactive = no such curve, though single readings can be large or run the other way; the % refers to the signal ratio. Potencies of inconclusive entries are doubtful fits and often do not repeat. A note “side channel” means that the fit belongs to a control or component signal, not to the main read-out.

What follows are compounds tested against Muscleblind-like protein 1 (Homo sapiens) (UniProt Q9NR56) (assay: qHTS Assay for Inhibitors of MBNL1-poly(CUG) RNA binding). Conditions: TR-FRET MBNL1-His/biotin-(CUG)12 binding, 665/545 ratio; series mostly up to 57.5 µM.
Outline: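 Compound titration spanned 92 nM–58 uM against the MBNL1-His/biotin-(CUG)12 complex. After 60 min at room temperature with 5 nM streptavidin-XL665 and 0.055 ng/ul terbium anti-His, ratiometric 665/545 nm emission (Ex 340 nm) normalized to controls.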
Potency is the fitted concentration of half-maximal effect; tags give direction and shape of the fitted curve or compound fluorescence and quenching.

Chain of UniProt Q9NR56 (Q9NR56 whole entry, looked up): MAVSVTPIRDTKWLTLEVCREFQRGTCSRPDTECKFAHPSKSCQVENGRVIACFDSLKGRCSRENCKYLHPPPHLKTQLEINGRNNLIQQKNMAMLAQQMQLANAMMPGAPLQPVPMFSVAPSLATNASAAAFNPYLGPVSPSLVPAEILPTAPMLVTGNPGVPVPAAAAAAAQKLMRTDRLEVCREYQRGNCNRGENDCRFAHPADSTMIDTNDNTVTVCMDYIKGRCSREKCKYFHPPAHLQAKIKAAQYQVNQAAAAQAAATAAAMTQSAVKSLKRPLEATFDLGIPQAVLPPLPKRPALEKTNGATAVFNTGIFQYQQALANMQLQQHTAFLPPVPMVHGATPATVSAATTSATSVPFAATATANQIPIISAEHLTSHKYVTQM

SMILES | Potency
CC(C)(C)c1cc(CCC(=O)NNC(=O)c2ccco2)cc(C(C)(C)C)c1O | inactive
COCCSc1nnc(NC(=O)c2cc(OC)c(OC)cc2[N+](=O)[O-])s1 | inconclusive: 25.1 µM [quencher, side channel, single point]
CN(C)CCCNc1ccc(-c2n[nH]c(=O)c3ccccc23)cc1[N+](=O)[O-] | inconclusive: 7.94 µM [quencher, side channel, partial curve]
CNc1ccccc1C(C)(C)c1cc(C)[nH]n1 | inactive
CC[n+]1c(/C=C2\Sc3ccccc3N2C)ccc2cccc(C)c21 | inconclusive: 7.94 µM [quencher, side channel, partial curve]
CCCCN(CCCC)C1=Nc2ccccc2N/C1=C(/C#N)C(=O)OCC | inconclusive: 35.5 µM [fluorescent, side channel, single point]
O=c1oc2ccccc2cc1-c1nc(-c2ccccc2)no1 | inconclusive: 7.08 µM [quencher, side channel, full curve]
O=C(CCc1ccccc1)Nc1ccccc1 | inconclusive: 10 µM [quencher, side channel, partial curve]
O=C1c2ccccc2C(=O)N1CN(C(=O)c1ccccc1)c1ccc(O)cc1 | inconclusive: 25.1 µM [quencher, side channel, partial curve]
Cc1cc(C)c(S(=O)(=O)NC(CC(=O)O)c2cccc([N+](=O)[O-])c2)c(C)c1 (stereo not drawn) | inconclusive: 15.8 µM [quencher, side channel, partial curve]
O=S(=O)(NCCc1csc(-c2ccc(C(F)(F)F)cc2)n1)c1ccc2c(c1)OCCO2 | inconclusive: 25.1 µM [quencher, side channel, single point]
O=C(NC(Cc1ccccc1)C(=O)O)/C(=C/c1ccco1)NC(=O)c1cccc([N+](=O)[O-])c1 (stereo not drawn) | inconclusive: 12.6 µM [quencher, side channel, partial curve]
CCOC(=O)c1[nH]c2ccccc2c1NC(C)=O | inactive
Cc1ccc(-n2nc(C)cc2NC(=O)c2ccc(C)s2)cc1 | inconclusive: 4.47 µM [fluorescent, side channel, single point]
Cc1cc(C)n(-c2nnc3c4ccccc4n(C)c3n2)n1 | inconclusive: 8.91 µM [quencher, side channel, partial curve]
CCCCC[C@H](O)/C=C/[C@@H]1[C@@H](C/C=C\CCCC(=O)O)[C@@H](O)C[C@H]1O | inactive
Cn1c(=O)c2c(nc(N3CCN(c4ccc([N+](=O)[O-])cc4)CC3)n2C)n(C)c1=O | inconclusive: 2 µM [quencher, side channel, full curve, poor fit]
CCOc1cccc(OCCCCN2CCOCC2)c1 | inactive
O=[N+]([O-])c1cccc2nc(-c3ccccc3)c(-c3ccccc3)nc12 | inconclusive: 31.6 µM [quencher, side channel, partial curve]

SMILES | Potency
CCN(CC)CCCNC(=O)c1cc2c(=O)n(CC)c3ccccc3c2s1 | inconclusive: 14.1 µM [quencher, side channel, partial curve]
CC1=C(C(=O)c2ccccc2)C(c2cn(-c3ccccc3)nc2-c2ccc(Cl)cc2)NC(=S)N1 (stereo not drawn) | inactive
CCc1ccc(/C=C2/SC(=S)N(CCC(=O)NCCCN3CCOCC3)C2=O)cc1 | inconclusive: 7.94 µM [quencher, side channel, partial curve]
Cc1cccc(N2CCN(C(=O)Cc3ccccc3[N+](=O)[O-])CC2)c1C | inconclusive: 39.8 µM [quencher, side channel, partial curve, poor fit]
O=C(Nc1cccc([N+](=O)[O-])c1)c1[nH]ncc1Cl | inconclusive: 20 µM [quencher, side channel, partial curve]
Cc1cc(C)c2nc3sc(C(=O)N4CCOCC4)c(N)c3cc2c1 | inconclusive: 14.1 µM [quencher, partial curve]
COc1ccc(S(=O)(=O)Nc2noc3ccccc23)cc1OC | inactive
COc1ccc(OCc2nnc(SCC(=O)c3c(N)n(C)c(=O)n(C)c3=O)n2-c2ccccc2F)cc1 | inconclusive: 6.31 µM [fluorescent, side channel, single point]
CC(/C=C/c1ccccc1)=N/NC(=O)c1cc([N+](=O)[O-])cc([N+](=O)[O-])c1 | inconclusive: 10 µM [quencher, side channel, partial curve, poor fit]
COc1ccccc1CC(=O)NNS(=O)(=O)c1ccc([N+](=O)[O-])cc1 | inconclusive: 10 µM [quencher, side channel, partial curve]
CC(=O)Nc1ccc(C2Nc3ccccc3C(=O)N2C2CCCCC2)cc1 (stereo not drawn) | inactive
C=C(C)CNC(=S)N/N=C/c1ccc(N2CCOCC2)cc1 | inconclusive: 20 µM [quencher, side channel, partial curve]
Cc1ccc(-c2cnc(-c3ccncc3)o2)cc1 | inconclusive: 15.8 µM [quencher, side channel, partial curve]
Cc1[nH][nH]c(=O)c1C(c1ccc(O)c([N+](=O)[O-])c1)c1c(C)[nH][nH]c1=O | inconclusive: 22.4 µM [quencher, side channel, partial curve]
Cc1ncsc1CCC(=O)N1CCCC(Nc2ccc(C(C)C)cc2)C1 (stereo not drawn) | inactive
CC(=O)c1ccccc1Oc1ncnc(N)c1[N+](=O)[O-] | inconclusive: 17.8 µM [quencher, partial curve]
O=C(CCc1ccc(S(=O)(=O)NC2CCCCC2)cc1)NCc1cccnc1 | inconclusive: 12.6 µM [inhibitor, single point]
CN(C)S(=O)(=O)N1CCN(c2ccc([N+](=O)[O-])c(NC3CC3)c2)CC1 | inconclusive: 17.8 µM [quencher, side channel, partial curve]
Cc1ccc(OCc2nnc(SC(C)C(=O)O)n2Cc2ccccc2)cc1 (stereo not drawn) | inconclusive: 63.1 µM [inhibitor, partial curve]
